# Data: the supplement of paper PMC8728848
# Some of the results follow.
# B1: PX9961H-bth-557-24-557 (Bacteroides thetaiotaomicron) (protein)
# chain: EETRTEVEKKNYMNNAEEAKDVLLGVYRTNTLDAMYGYYLSILFNLGTDISQVEGSGNENFRIIPTNSFPTTQSEVQQTWAALYTGIYRANDFLERISNKIGSYTTTDKKLATLYIAEARALRGMFYFELVRRFGNVVLMTSTQMSNQNPATYVQSAPEKVYEYIEDDLLYACDILPYATDDQYRESNDYRFSKGAALGLLTKVYATWAGYPVKDESKWEAAAKTARILVESGKHGLLKDYEQLWKNTCNGTWDPTESLIEISFYSPTVSGNSDPVGRIGKWNGVKTTAIAGVRGSCAANVKVVHTFVLDWREDVSDIRRDLSIANYQYTDTKKSLWVAGASDTDESAAEKDADPTKAQKNKQNYTPAKWDIQKYVTTNSFINNDKSNVNWYFLRYADVLLLYAEALNEWKHGPDAEAYNAINAVRRRGYGNPSNTSACDLPQGLDETSFREAVRKERSYELSFEGHRRQDLIRWGIYYKTVQATAKELGYWWEGTGSPNYSVATYTEEGKHELFPIPQRDMDLCIQFNQNPKW
# How the values were obtained:
# Assay in all cases: glycan array binding signal (z-score within array); higher = stronger binding
# Conditions in all cases: glycan notation: IUPAC condensed, linker removed
# [1] = target: GlcNAc(b1-3)Gal(b1-4)GlcNAc(b1-3)Gal(b1-4)GlcNAc(b1-3)GalNAc
# Outline: (§1)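 The binding signal is a Z-score computed within each array and averaged over linkers. Arrays of the same protein sequence at different concentrations or buffers were also averaged together. Data originate from 3228 arrays in the Consortium for Functional Glycomics database, kept only where the protein sequence was available.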
# [2] = target: GlcNAc(b1-3)Gal(b1-4)GlcNAc(b1-3)GalNAc
# Outline: as §1
# [3] = target: GlcNAc(b1-3)Gal(b1-4)GlcNAc(b1-3)[GlcNAc(b1-3)Gal(b1-4)GlcNAc(b1-3)]GalNAc
# Outline: as §1
# [4] = target: GlcNAc(b1-3)Gal(b1-4)GlcNAc(b1-6)[Gal(b1-3)]GalNAc
# Outline: as §1
# [5] = target: GlcNAc(b1-3)Gal(b1-4)GlcNAc(b1-6)[GlcNAc(b1-3)Gal(b1-3)]GalNAc
# Outline: as §1
# [6] = target: GlcNAc(b1-3)Gal(b1-4)GlcNAc(b1-6)[GlcNAc(b1-3)]Gal(b1-4)GlcNAc
# Outline: as §1
# GlcNAc(b1-3)GalNAc = target: GlcNAc(b1-3)GalNAc
# Outline: as §1
# GlcNAc(b1-3)Man = target: GlcNAc(b1-3)Man
# Outline: as §1
# [7] = target: GlcNAc(b1-3)[GlcNAc(b1-4)][GlcNAc(b1-6)]GlcNAc
# Outline: as §1
# [8] = target: GlcNAc(b1-3)[GlcNAc(b1-6)]Gal(b1-4)GlcNAc
# Outline: as §1
# [9] = target: GlcNAc(b1-3)[GlcNAc(b1-6)]GalNAc
# Outline: as §1
# [10] = target: GlcNAc(b1-4)Gal(b1-4)GlcNAc
# Outline: as §1
# GlcNAc(b1-4)GlcNAc = target: GlcNAc(b1-4)GlcNAc
# Outline: as §1
# [11] = target: GlcNAc(b1-4)GlcNAc(b1-4)GlcNAc
# Outline: as §1
# [12] = target: GlcNAc(b1-4)GlcNAc(b1-4)GlcNAc(b1-4)GlcNAc(b1-4)GlcNAc
# Outline: as §1
# [13] = target: GlcNAc(b1-4)GlcNAc(b1-4)GlcNAc(b1-4)GlcNAc(b1-4)GlcNAc(b1-4)GlcNAc
# Outline: as §1
# [14] = target: GlcNAc(b1-4)[GlcNAc(b1-6)]GalNAc
# Outline: as §1
# [15] = target: GlcNAc(b1-6)Gal(b1-4)GlcNAc
# Outline: as §1
# GlcNAc(b1-6)GalNAc = target: GlcNAc(b1-6)GalNAc
# Outline: as §1
# [16] = target: GlcNAc6S(b1-3)Gal(b1-4)GlcNAc
# Outline: as §1
# Kdn(a2-3)Gal(b1-3)GalNAc = target: Kdn(a2-3)Gal(b1-3)GalNAc
# Outline: as §1
# Kdn(a2-3)Gal(b1-3)GlcNAc = target: Kdn(a2-3)Gal(b1-3)GlcNAc
# Outline: as §1
# Kdn(a2-3)Gal(b1-4)Glc = target: Kdn(a2-3)Gal(b1-4)Glc
# Outline: as §1
# Kdn(a2-3)Gal(b1-4)GlcNAc = target: Kdn(a2-3)Gal(b1-4)GlcNAc
# Outline: as §1
# [17] = target: Kdn(a2-3)Gal(b1-4)[Fuc(a1-3)]GlcNAc
# Outline: as §1
# Kdn(a2-6)Gal(b1-4)GlcNAc = target: Kdn(a2-6)Gal(b1-4)GlcNAc
# Outline: as §1
# [18] = target: Man(a1-2)Man(a1-2)Man(a1-3)Man
# Outline: as §1
# [19] = target: Man(a1-2)Man(a1-2)Man(a1-6)[Man(a1-3)]Man
# Outline: as §1
# Man(a1-2)Man(a1-3)Man = target: Man(a1-2)Man(a1-3)Man
# Outline: as §1
# [20] = target: Man(a1-2)Man(a1-3)[Man(a1-2)Man(a1-6)]Man
# Outline: as §1
# [21] = target: Man(a1-2)Man(a1-3)[Man(a1-2)Man(a1-6)]Man(a1-6)[Man(a1-2)Man(a1-2)Man(a1-3)]Man
# Outline: as §1
# [22] = target: Man(a1-2)Man(a1-3)[Man(a1-2)Man(a1-6)]Man(a1-6)[Man(a1-2)Man(a1-2)Man(a1-3)]Man(b1-4)GlcNAc(b1-4)GlcNAc
# Outline: as §1
# [23] = target: Man(a1-2)Man(a1-3)[Man(a1-6)]Man(a1-6)[Man(a1-2)Man(a1-3)]Man(b1-4)GlcNAc(b1-4)GlcNAc
# Outline: as §1
# [24] = target: Man(a1-2)Man(a1-6)[Man(a1-3)]Man(a1-6)[Man(a1-2)Man(a1-2)Man(a1-3)]Man
# Outline: as §1
# [25] = target: Man(a1-2)Man(a1-6)[Man(a1-3)]Man(a1-6)[Man(a1-2)Man(a1-2)Man(a1-3)]Man(b1-4)GlcNAc(b1-4)GlcNAc
# Outline: as §1
# Man(a1-3)[Man(a1-6)]Man = target: Man(a1-3)[Man(a1-6)]Man
# Outline: as §1
# [26] = target: Man(a1-3)[Man(a1-6)]Man(a1-6)[Man(a1-2)Man(a1-3)]Man(b1-4)GlcNAc(b1-4)GlcNAc
# Outline: as §1
# [27] = target: Man(a1-3)[Man(a1-6)]Man(a1-6)[Man(a1-3)]Man
# Outline: as §1
# [28] = target: Man(a1-3)[Man(a1-6)]Man(a1-6)[Man(a1-3)]Man(b1-4)GlcNAc(b1-4)GlcNAc
# Outline: as §1
# [29] = target: Man(a1-3)[Man(a1-6)]Man(b1-4)GlcNAc(b1-4)GlcNAc
# Outline: as §1
# [30] = target: Man(a1-3)[Man(a1-6)]Man(b1-4)GlcNAc(b1-4)[Fuc(a1-6)]GlcNAc
# Outline: as §1
# Man(a1-6)Man = target: Man(a1-6)Man
# Outline: as §1
# Man(b1-4)GlcNAc = target: Man(b1-4)GlcNAc
# Outline: as §1
# MurNAc(b1-4)GlcNAc = target: MurNAc(b1-4)GlcNAc
# Outline: as §1
# Neu5Ac(a2-3)Gal = target: Neu5Ac(a2-3)Gal
# Outline: as §1
binder,measurement,setting,value
B1,glycan array binding signal (z-score),[1],-0.557
same,glycan array binding signal (z-score),[2],-0.341
same,glycan array binding signal (z-score),[3],-0.364
same,glycan array binding signal (z-score),[4],-0.508
same,glycan array binding signal (z-score),[5],0.212
same,glycan array binding signal (z-score),[6],-0.404
same,glycan array binding signal (z-score),GlcNAc(b1-3)GalNAc,-0.172
same,glycan array binding signal (z-score),GlcNAc(b1-3)Man,-0.246
same,glycan array binding signal (z-score),[7],0.037
same,glycan array binding signal (z-score),[8],-0.13
same,glycan array binding signal (z-score),[9],-0.236
same,glycan array binding signal (z-score),[10],-0.555
same,glycan array binding signal (z-score),GlcNAc(b1-4)GlcNAc,-0.446
same,glycan array binding signal (z-score),[11],-0.33
same,glycan array binding signal (z-score),[12],-0.163
same,glycan array binding signal (z-score),[13],-0.027
same,glycan array binding signal (z-score),[14],-0.305
same,glycan array binding signal (z-score),[15],-0.133
same,glycan array binding signal (z-score),GlcNAc(b1-6)GalNAc,0.185
same,glycan array binding signal (z-score),[16],-0.178
same,glycan array binding signal (z-score),Kdn(a2-3)Gal(b1-3)GalNAc,-0.355
same,glycan array binding signal (z-score),Kdn(a2-3)Gal(b1-3)GlcNAc,-0.196
same,glycan array binding signal (z-score),Kdn(a2-3)Gal(b1-4)Glc,-0.397
same,glycan array binding signal (z-score),Kdn(a2-3)Gal(b1-4)GlcNAc,-0.36
same,glycan array binding signal (z-score),[17],-0.131
same,glycan array binding signal (z-score),Kdn(a2-6)Gal(b1-4)GlcNAc,-0.208
same,glycan array binding signal (z-score),[18],-0.559
same,glycan array binding signal (z-score),[19],0.068
same,glycan array binding signal (z-score),Man(a1-2)Man(a1-3)Man,-0.572
same,glycan array binding signal (z-score),[20],-0.089
same,glycan array binding signal (z-score),[21],-0.558
same,glycan array binding signal (z-score),[22],-0.654
same,glycan array binding signal (z-score),[23],-0.398
same,glycan array binding signal (z-score),[24],0.043
same,glycan array binding signal (z-score),[25],-0.356
same,glycan array binding signal (z-score),Man(a1-3)[Man(a1-6)]Man,0.279
same,glycan array binding signal (z-score),[26],-0.539
same,glycan array binding signal (z-score),[27],0.129
same,glycan array binding signal (z-score),[28],-0.619
same,glycan array binding signal (z-score),[29],-0.3
same,glycan array binding signal (z-score),[30],-0.454
same,glycan array binding signal (z-score),Man(a1-6)Man,-0.064
same,glycan array binding signal (z-score),Man(b1-4)GlcNAc,-0.424
same,glycan array binding signal (z-score),MurNAc(b1-4)GlcNAc,-0.515
same,glycan array binding signal (z-score),Neu5Ac(a2-3)Gal,-0.112
